Changes are numbered by the printed parent chain; changes in the protein carry UniProt numbers. The list shows a part of the results.
T1: RBFOX1 RRM RbFoxmut (Fox-RRM*) (Homo sapiens, UniProt Q9NWB1 109-208, R118D;E147R;N151S;E152T)
T1 sequence: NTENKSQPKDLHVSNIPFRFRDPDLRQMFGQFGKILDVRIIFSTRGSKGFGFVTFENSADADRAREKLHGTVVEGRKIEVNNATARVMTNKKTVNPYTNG

B1: GGCCUAC (DNA:RNA)
RNA: GGGAGACCGGAAUUCAGAUUGUCCGGCCUACUUAAAUCCCGUCGUAGCCACCA
DNA 1: CAATCTGAATTCCGGTCTCCC
DNA 2: TGGTGGCTACGACGGGATT
B2: CGAGUCC (DNA:RNA)
RNA: B1 RNA with G25C, C27A, C28G, A30C
DNA 1: CAATCTGAATTCCGGTCTCCC
DNA 2: TGGTGGCTACGACGGGATT
B3: UCUGUAA (DNA:RNA)
RNA: B1 RNA with G25U, G26C, C27U, C28G, C31A
DNA 1: CAATCTGAATTCCGGTCTCCC
DNA 2: TGGTGGCTACGACGGGATT
B4: AGCCCCG (DNA:RNA)
RNA: B1 RNA with G25A, U29C, A30C, C31G
DNA 1: CAATCTGAATTCCGGTCTCCC
DNA 2: TGGTGGCTACGACGGGATT
B5: AUACUGA (DNA:RNA)
RNA: B1 RNA with G25A, G26U, C27A, A30G, C31A
DNA 1: CAATCTGAATTCCGGTCTCCC
DNA 2: TGGTGGCTACGACGGGATT
B6: AUGCUGG (DNA:RNA)
RNA: B1 RNA with G25A, G26U, C27G, A30G, C31G
DNA 1: CAATCTGAATTCCGGTCTCCC
DNA 2: TGGTGGCTACGACGGGATT
B7: AACUUCU (DNA:RNA)
RNA: B1 RNA with G25A, G26A, C28U, A30C, C31U
DNA 1: CAATCTGAATTCCGGTCTCCC
DNA 2: TGGTGGCTACGACGGGATT
B8: GAUUGUC (DNA:RNA)
RNA: B1 RNA with G26A, C27U, C28U, U29G, A30U
DNA 1: CAATCTGAATTCCGGTCTCCC
DNA 2: TGGTGGCTACGACGGGATT
B9: GAACUUC (DNA:RNA)
RNA: B1 RNA with G26A, C27A, A30U
DNA 1: CAATCTGAATTCCGGTCTCCC
DNA 2: TGGTGGCTACGACGGGATT

target: T1, RBFOX1 RRM RbFoxmut (Fox-RRM*); test: EMSA; HiTS-Eq, 1 nM pool, 10 min; buffer printed only for the single-RNA assays: 10 mM Tris pH 7.5, 150 mM NaCl, 3.4 mM EDTA, 0.001% NP-40, 30 C; conditions: tags: His6 N-terminal (pET28a); label: 5' 32P
Outline: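 A pool of RNA with 7 randomized nucleotides, 5′-radiolabelled and with DNA-annealed flanks, was equilibrated at 1 nM for 10 min in 50 µL with purified RbFox RRM, wild type or mutant, across increasing protein concentrations. Free RNA was separated by 8% native PAGE, excised, reverse-transcribed, barcoded by PCR and sequenced. Relative association constants were obtained from read-count changes of each RNA species versus the control reaction and normalised to the cognate motif.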

| Binder | binding signal |
| --- | --- |
| B1 | 0.0604 KA relative to UGCAUGU |
| B2 | 0.101 KA relative to UGCAUGU |
| B3 | 0.13 KA relative to UGCAUGU |
| B4 | 0.0812 KA relative to UGCAUGU |
| B5 | 0.0711 KA relative to UGCAUGU |
| B6 | 0.126 KA relative to UGCAUGU |
| B7 | 0.0625 KA relative to UGCAUGU |
| B8 | 0.286 KA relative to UGCAUGU |
| B9 | 0.0369 KA relative to UGCAUGU |

Source: paper PMC9911399, “Two distinct binding modes provide the RNA-binding protein RbFox with extraordinary sequence specificity”
